Reference: the supplement of paper PMC3334620
In all, about 33,000 sequences were measured (“E-score (-0.5 to 0.5)”: median about -0.012, highest 2% from about 0.27 on). The list shows a part of the results.

Target: T1, Vhr1 (UniProt P40522)
T1 sequence: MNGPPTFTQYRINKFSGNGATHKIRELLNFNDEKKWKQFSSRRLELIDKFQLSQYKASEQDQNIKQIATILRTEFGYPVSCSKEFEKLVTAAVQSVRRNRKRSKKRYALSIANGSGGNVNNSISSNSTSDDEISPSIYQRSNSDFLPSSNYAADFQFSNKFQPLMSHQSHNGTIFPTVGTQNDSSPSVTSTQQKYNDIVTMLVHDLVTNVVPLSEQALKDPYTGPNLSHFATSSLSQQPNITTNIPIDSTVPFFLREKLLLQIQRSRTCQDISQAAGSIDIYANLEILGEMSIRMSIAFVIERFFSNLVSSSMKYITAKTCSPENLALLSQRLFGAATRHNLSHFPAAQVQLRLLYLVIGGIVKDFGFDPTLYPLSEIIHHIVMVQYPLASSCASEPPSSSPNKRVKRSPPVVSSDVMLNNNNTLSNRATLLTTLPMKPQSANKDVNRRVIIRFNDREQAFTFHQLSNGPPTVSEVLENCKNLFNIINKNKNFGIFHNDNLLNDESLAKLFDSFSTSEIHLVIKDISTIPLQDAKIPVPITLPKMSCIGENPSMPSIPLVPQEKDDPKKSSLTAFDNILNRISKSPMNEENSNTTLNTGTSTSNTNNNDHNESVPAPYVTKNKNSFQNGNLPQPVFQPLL
Assay: PBM E-score (8-mer binding enrichment) (E-score (-0.5 to 0.5)); higher = stronger / more preferred TF binding; most listed sequences are background and not binding sites
Settings: protein concentration: 200 nM; construct: GST-full length
Experimental: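 Universal 'all 10-mer' protein binding microarrays (Agilent AMADID 015681) probed with GST-tagged S. cerevisiae TFs (full-length or DBD) made by in vitro transcription/translation (PURExpress), about 100-200 nM. Bound TF was detected with fluorescent anti-GST. Each ungapped 8-mer (which stands for itself and its reverse complement) is scored by the PBM enrichment score (E-score), a modified Wilcoxon-Mann-Whitney statistic from -0.5 to +0.5, computed with the Universal PBM Analysis Suite. Scale: above 0.35 generally sequence-specific binding.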

| Sequence | PBM E-score |
| --- | --- |
| CAAGTCTC | -0.195 |
| ACGTCCAC | -0.21 |
| GAACCAAA | -0.0377 |
| AGCATAAA | -0.161 |
| AGCAGTCG | -0.0524 |
| AAAGGTAT | -0.0543 |
| AGCCACCC | 0.175 |
| ACCGAAAT | -0.139 |
| CGAGCATC | -0.0984 |
| AGCCGTAC | 0.0737 |
| AGAACGAA | -0.158 |
| AGCCGACT | 0.0574 |
| TCTGGGCA | -0.15 |
| ACAAACAG | 0.0433 |
| GATAAGAA | -0.259 |
| TGAAGACA | -0.142 |
| CGCGCCGA | 0.155 |
| CCCGGCCA | -0.22 |
| AGAAGCAC | -0.242 |
| ATCTAACG | -0.165 |
| GGTGCTCA | 0.0342 |
| CGGACCGC | 0.0237 |
| AATCTAGA | -0.14 |
| ACCTAAGC | -0.0498 |
| CGGATACC | 0.16 |

| Sequence | PBM E-score |
| --- | --- |
| AGATCAGA | -0.0703 |
| CGTTCTCC | -0.0491 |
| AGTAGGAC | -0.0372 |
| TGCCACCA | -0.0555 |
| ACGTTAAG | -0.236 |
| ACTGATAG | 0.167 |
| ACTACGCT | -0.0765 |
| TGCATCCA | -0.0453 |
| TCAGGGCA | -0.047 |
| CTACGCCA | -0.0819 |
| CCGAAGTC | 0.0641 |
| GCACACCC | 0.139 |
| GGTAAGCA | -0.0637 |
| ACGGGTTG | -0.0122 |
| ATGGGCGC | -0.0233 |
| TCTGTTAA | -0.127 |
| AAACCCCT | -0.279 |
| ATTAGAAC | 0.0749 |
| ACATGAGA | 0.273 |
| AGCACGCA | -0.235 |
| AACAAACA | 0.0355 |
| AAATTTAG | -0.069 |
| GCCAACGA | -0.111 |
| CCGGAGCG | -0.0813 |
| CAACGGGC | -0.0189 |

| Sequence | PBM E-score |
| --- | --- |
| CCTGCGTC | -0.0426 |
| GATGTTCA | -0.103 |
| GACGGTCC | -0.099 |
| ACAAGTTG | -0.0282 |
| GATTGTAA | 0.0334 |
| AAACGGAG | -0.109 |
| CAACTTAG | 0.0775 |
| CTGTTATA | 0.0386 |
| ACGACGAG | 0.0374 |
| AAGCTATT | -0.185 |
| CGGTAGGA | 0.139 |
| GACCCTGC | -0.14 |
| AGGGATAA | 0.101 |
| GCCGCCGA | 0.0775 |
| ATTCACGA | 0.144 |
| ATTTGTTG | 0.0181 |
| ACTAGTCT | 0.0852 |
| AATGGAGA | 0.0175 |
| AGGCAAAG | -0.192 |
| ATCTACAT | 0.114 |
| GGGTACGA | 0.174 |
| CCCACTTC | 0.067 |
| ATATCCAG | 0.207 |
| ATAATCCA | 0.0661 |
| ATAGGGAG | -0.0261 |

| Sequence | PBM E-score |
| --- | --- |
| CCGGTCGA | -0.153 |
| AAACATAA | 0.206 |
| TAAACATA | 0.137 |
| GCACCGGC | 0.101 |
| TACAAGTA | 0.0561 |
| CGTGCCGA | -0.00519 |
| ATCCTACG | -0.0602 |
| AGGGCGTA | -0.0697 |
| CAGCTACA | 0.0756 |
| GCCTTGCC | -0.12 |
| GACTAAGC | 0.211 |
| AATCTGAG | -0.122 |
| CTTTAAAA | -0.189 |
| GTGCCCAA | -0.0239 |
| GAGTATAC | -0.0406 |
| CAATACGA | 0.109 |
| ACGGTCTG | 0.0431 |
| ACCATTCG | -0.0262 |
| CGTAAGTC | -0.0346 |
| ATTGCAAA | -0.0581 |
| CGTTAATA | 0.0862 |
| ATTAAGTA | -0.0497 |
| GGGACAAC | -0.119 |
| CGGTTAGC | -0.161 |
| TATGACAA | 0.0461 |

| Sequence | PBM E-score |
| --- | --- |
| CAATCAGG | 0.0706 |
| GCCGGCCC | -0.0467 |
| GACTGTCC | 0.0278 |
| CAAGCTTA | -0.0834 |
| GGGAAAAC | -0.167 |
| ACATCTGC | 0.0724 |
| GGTGTCGA | 0.249 |
| CTGAGGAC | -0.209 |
| ATCGAACG | -0.0108 |
| AAATATGA | 0.247 |
| ATGACGCC | -0.145 |
| ACCTACCT | -0.0343 |
| CACGGTTC | 0.0342 |
| CCGAATTA | -0.188 |
| AAGCACCC | -0.2 |
| CATAATCC | 0.105 |
| AGAACAGG | -0.121 |
| TTGTTAAA | -0.23 |
| GCGCAGTA | -0.0752 |
| GATCGTCC | -0.0174 |
| ACTACGTC | -0.0905 |
| CTTGCCCC | -0.215 |
| ATATCTTC | 0.11 |
| GAATGGGA | -0.109 |
| AAGGAAAA | -0.11 |

| Sequence | PBM E-score |
| --- | --- |
| CCAGTATC | 0.0224 |
| AAGGCGGC | -0.0722 |
| AGGGCAAT | -0.095 |
| ACAACGCG | 0.0626 |
| GAGTGTAA | 0.0325 |
| AGGGAACC | 0.0115 |
| CGATCCTA | -0.0309 |
| GAGCTCGC | 0.114 |
| ACCAGATC | 0.0548 |
| CATGACCA | 0.138 |
| ATAATCAT | 0.389 |
| CCCGTGCG | 0.111 |
| GGCTAGCA | -0.0392 |
| AACTTAAT | -0.0399 |
| ACATAGTA | 0.188 |
| AACATATG | -0.0364 |
| AGGGTAAA | -0.0504 |
| CCAATCAA | -0.0986 |
| CTATGCGA | -0.00889 |
| CCTTGAGA | -0.0758 |
| CCCCACTA | 0.0338 |
| CAGCATAC | -0.0578 |
| GGGAATGA | 0.169 |
| GAGGTGCC | -0.276 |
| GCCACTTA | -0.0276 |

| Sequence | PBM E-score |
| --- | --- |
| ATCTATTG | 0.0986 |
| TACGACTA | 0.263 |
| AGACGCGG | -0.0378 |
| GAGTTACC | 0.103 |
| ACGGTTCA | -0.0333 |
| ACGGGCTC | -0.214 |
| AGGCACAA | -0.141 |
| AGAGATCT | -0.0304 |
| GAACCGTC | -0.0732 |
| CAGAGCTC | -0.281 |
| GCGCGACA | 0.061 |
| GCACCAAC | 0.0192 |
| TACGAACA | -0.0104 |
| AAGCCTCT | -0.177 |
| AAGGTGAG | 0.00362 |
| AAGCTGCA | -0.00033 |
| CAAATTGA | -0.124 |
| CCCGCAAC | 0.077 |
| TAGATGAA | -0.0839 |
| ACGCTAGT | -0.0378 |
| CGGTGGCC | 0.0237 |
| AAAAACTG | -0.193 |
